Data as given in publication PMC4336329 (PLoS ONE, 2015).
In all, about 310,000 compounds went through this assay and about 2,200 (0.71%) showed an effect of 50% or more. Effects have a minus sign here. This is one part of the list.

What follows are compounds tested against human ether-à-go-go-related gene (hERG) potassium channel (human, UniProt Q12809) (assay: primary screen, population patch clamp on CHO cells stably expressing hERG).
Sequence of human ether-à-go-go-related gene (hERG) potassium channel (Q12809 whole entry, looked up): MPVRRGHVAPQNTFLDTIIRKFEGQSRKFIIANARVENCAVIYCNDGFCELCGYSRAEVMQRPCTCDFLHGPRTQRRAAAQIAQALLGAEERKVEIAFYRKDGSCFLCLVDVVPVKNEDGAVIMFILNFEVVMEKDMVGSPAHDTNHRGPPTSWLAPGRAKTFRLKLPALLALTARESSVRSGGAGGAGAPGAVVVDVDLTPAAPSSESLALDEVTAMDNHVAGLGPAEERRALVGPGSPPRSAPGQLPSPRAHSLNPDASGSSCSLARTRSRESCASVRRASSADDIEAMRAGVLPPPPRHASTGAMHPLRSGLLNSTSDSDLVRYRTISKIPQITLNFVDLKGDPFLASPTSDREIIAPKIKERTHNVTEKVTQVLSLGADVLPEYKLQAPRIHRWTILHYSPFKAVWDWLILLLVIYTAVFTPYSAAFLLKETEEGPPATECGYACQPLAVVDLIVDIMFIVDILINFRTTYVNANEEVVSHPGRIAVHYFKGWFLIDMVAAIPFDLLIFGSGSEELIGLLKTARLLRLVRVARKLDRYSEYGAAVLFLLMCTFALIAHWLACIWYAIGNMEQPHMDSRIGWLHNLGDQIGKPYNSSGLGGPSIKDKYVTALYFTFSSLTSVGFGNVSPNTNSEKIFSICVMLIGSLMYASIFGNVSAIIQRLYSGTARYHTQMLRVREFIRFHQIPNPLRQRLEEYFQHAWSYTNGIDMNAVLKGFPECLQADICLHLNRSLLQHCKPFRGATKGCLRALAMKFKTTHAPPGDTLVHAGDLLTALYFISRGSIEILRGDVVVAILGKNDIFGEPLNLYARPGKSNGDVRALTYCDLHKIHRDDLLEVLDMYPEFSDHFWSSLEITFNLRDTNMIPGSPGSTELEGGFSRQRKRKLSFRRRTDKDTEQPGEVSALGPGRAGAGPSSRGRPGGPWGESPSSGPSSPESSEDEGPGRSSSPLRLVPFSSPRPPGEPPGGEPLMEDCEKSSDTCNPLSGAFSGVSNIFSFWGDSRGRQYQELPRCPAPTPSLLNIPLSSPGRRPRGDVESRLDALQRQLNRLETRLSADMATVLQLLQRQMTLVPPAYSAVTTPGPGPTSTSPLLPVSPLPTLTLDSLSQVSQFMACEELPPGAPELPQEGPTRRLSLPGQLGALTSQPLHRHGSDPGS
With `CC(C)CNC(=O)NC(=O)COc1c(F)c(F)cc(F)c1F` the “hERG current change (%, negative = inhibition) at 1uM” value was 7.97%. For `CCC(=O)Nc1ccc(C(=O)NNC(=O)c2cccc(C)c2)cc1`, the “hERG current change (%, negative = inhibition) at 1uM” value was 2.55%. For `CCCn1c(C)cc(-c2csc(NC(=O)CCc3nc4ccccc4c(=O)[nH]3)n2)c1C`, the “hERG current change (%, negative = inhibition) at 1uM” value was -5.66%. In the case of `CC(=O)Nc1ccc(Sc2ccccc2C(=O)N2CCCC2)cn1`, the “hERG current change (%, negative = inhibition) at 1uM” value was 1.73%. `O=c1oc(/C=C/c2ccco2)nc2sc3c(c12)CCC3` was tested, and the “hERG current change (%, negative = inhibition) at 1uM” value was 10.8%. `CCOC(=O)c1c(C)n(C)c2ccc(OCC(O)CN3C(=O)c4ccccc4S3(=O)=O)cc12` (stereo not shown) was tested, and the “hERG current change (%, negative = inhibition) at 1uM” value was 0.722%. In the case of `CN1CCN(c2ccc(NC(=O)COc3cccc4ccccc34)cc2)CC1`, the “hERG current change (%, negative = inhibition) at 1uM” value was -27%. `COc1c(F)c(F)c(C(=O)O)c(Nc2ccc(C)cc2)c1F` was tested, and the “hERG current change (%, negative = inhibition) at 1uM” value was 12.6%. In the case of `CCN(c1ccccc1)S(=O)(=O)c1ccc(OC)c(OC)c1`, the “hERG current change (%, negative = inhibition) at 1uM” value was 11.6%. `O=C(O)C1C2C=CC(O2)C1C(=O)Nc1ccc2c(c1)OCCO2` (stereo not shown) was tested, and the “hERG current change (%, negative = inhibition) at 1uM” value was 17.1%. For `CC1(C)CC(NC(=O)C23CCC(C)(C(=O)C2)C3(C)C)CC(C)(C)N1` (stereo not shown), the “hERG current change (%, negative = inhibition) at 1uM” value was 3.49%. In the case of `C[C@@H]1C[C@H]2[C@@H]3CCC4=CC(=O)C=C[C@]4(C)[C@@]3(Cl)[C@@H](O)C[C@]2(C)[C@@]1(OC(=O)c1ccco1)C(=O)CCl`, the “hERG current change (%, negative = inhibition) at 1uM” value was 12.2%. `Cc1ccccc1N1CCN(C2=NC(=O)/C(=C/c3cn[nH]c3-c3ccccc3)S2)CC1` was tested, and the “hERG current change (%, negative = inhibition) at 1uM” value was 13.7%. For `CCOc1ccccc1CN1CCCC(C(=O)c2ccc(OC)c(OC)c2)C1` (stereo not shown), the “hERG current change (%, negative = inhibition) at 1uM” value was -51.1%. `O=C(NCCCN1CCOCC1)c1ccc(Sc2ccc(Br)cc2)c([N+](=O)[O-])c1` was tested, and the “hERG current change (%, negative = inhibition) at 1uM” value was 6.03%. With `CC(C)CCN(C(=O)c1csnn1)C(C(=O)NC1CCCCC1)c1ccc(F)cc1` (stereo not shown) the “hERG current change (%, negative = inhibition) at 1uM” value was 13.5%. For `CCN(C(=O)COC(=O)c1cccnc1SC)C1CCCCC1`, the “hERG current change (%, negative = inhibition) at 1uM” value was 3.88%. With `Cc1nc([N+](=O)[O-])cn1-c1nc2ccccn2c1[N+](=O)[O-]` the “hERG current change (%, negative = inhibition) at 1uM” value was 9.1%. `O=c1[nH]c(=S)n(-c2ccc(F)cc2)c(O)c1/C=N/N1CCOCC1` was tested, and the “hERG current change (%, negative = inhibition) at 1uM” value was 15.6%. In the case of `O=C(O)/C=C/C(=O)Nc1ccc(C2(c3ccc(NC(=O)/C=C/C(=O)O)cc3)c3ccccc3-c3ccccc32)cc1`, the “hERG current change (%, negative = inhibition) at 1uM” value was 15.1%. `COc1ccc(OC)c(Nc2ccc(C(=O)O)cc2[N+](=O)[O-])c1` was tested, and the “hERG current change (%, negative = inhibition) at 1uM” value was 6.05%. For `CN(CCCC(=O)O)c1ccc(N=Nc2ccc([N+](=O)[O-])cc2)cc1`, the “hERG current change (%, negative = inhibition) at 1uM” value was 8.9%. For `CC(=O)N1c2ccc(F)c(F)c2C[C@H]1C`, the “hERG current change (%, negative = inhibition) at 1uM” value was 15.6%. With `CCN(CC)S(=O)(=O)c1ccc(NC(=O)CSc2cccc[n+]2[O-])cc1` the “hERG current change (%, negative = inhibition) at 1uM” value was 6.75%. `COC(c1ccccc1)c1nnc(CCC(=O)N2CCN(CCOc3ccccc3)CC2)o1` (stereo not shown) was tested, and the “hERG current change (%, negative = inhibition) at 1uM” value was 13.5%. With `Cc1cc(C)nc(-n2ncc3c2CC(c2ccccc2C)CC3=O)n1` (stereo not shown) the “hERG current change (%, negative = inhibition) at 1uM” value was 9.18%. For `Cc1cccc(N2CCC(NCc3c(C(=O)N4CCCCC4)nc4c(C)cccn34)CC2)c1`, the “hERG current change (%, negative = inhibition) at 1uM” value was -0.865%. For `CCOc1ccc(-c2nn(-c3ccccc3)cc2/C=C2\SC(N)=NC2=O)cc1C`, the “hERG current change (%, negative = inhibition) at 1uM” value was 0.077%. For `Cn1c(=O)c2c(nc(NCCCN3CCOCC3)n2Cc2cccc(Cl)c2)n(C)c1=O`, the “hERG current change (%, negative = inhibition) at 1uM” value was 0.343%. With `C=CCCN(C(CC(C)C)C(=O)OC)S(=O)(=O)c1ccccc1Br` (stereo not shown) the “hERG current change (%, negative = inhibition) at 1uM” value was 13.4%. In the case of `CCC(=O)NC(=S)Nc1cccc(NC(=O)c2ccccc2Cl)c1`, the “hERG current change (%, negative = inhibition) at 1uM” value was 3.89%. In the case of `Cc1cccc(C#N)c1`, the “hERG current change (%, negative = inhibition) at 1uM” value was 5.21%. `Cc1nc(N2CCN(C)CC2)c2sc(=S)n(C)c2n1` was tested, and the “hERG current change (%, negative = inhibition) at 1uM” value was 6.99%. In the case of `CN(C)c1ccc(/C=N/NC(=O)c2nnn(-c3nonc3N)c2CN(C)c2ccccc2)cc1`, the “hERG current change (%, negative = inhibition) at 1uM” value was 4.39%. For `O=C(CN1CCCCC1)Nc1nc(-c2ccc(Cl)cc2)cs1`, the “hERG current change (%, negative = inhibition) at 1uM” value was 10.7%. In the case of `COc1cc2c(cc1O)C[C@H]1c3c(cc(O)c(OC)c3-2)CCN1C`, the “hERG current change (%, negative = inhibition) at 1uM” value was -44.4%. `CCOC(=O)Cc1csc(NC(=O)c2csc3c2CCCC3)n1` was tested, and the “hERG current change (%, negative = inhibition) at 1uM” value was -6.45%. With `COc1ccc(CNC(=O)C(NS(=O)(=O)c2cccc3nsnc23)C(C)C)cc1` (stereo not shown) the “hERG current change (%, negative = inhibition) at 1uM” value was 13.7%. For `COC(=O)CCCC1=CC2=CC(=O)C(C)(OC(=O)c3cccs3)C(=O)C2=CN1CCN1CCOCC1` (stereo not shown), the “hERG current change (%, negative = inhibition) at 1uM” value was -1.92%. `O=C(c1ccccc1F)N1CCC2(CC1)OCCO2` was tested, and the “hERG current change (%, negative = inhibition) at 1uM” value was 23.5%. `O=C(NC1CCCCC1)C1CCN(C(=O)c2ccc(Cl)cc2)CC1` was tested, and the “hERG current change (%, negative = inhibition) at 1uM” value was 5.16%. `C=CCNC(=O)COC(=O)c1c2c(nc3ccccc13)CCC2` was tested, and the “hERG current change (%, negative = inhibition) at 1uM” value was 15.5%. `CCOc1ccc2nc(NCCNC(=O)Nc3ccccc3)c(C#N)cc2c1` was tested, and the “hERG current change (%, negative = inhibition) at 1uM” value was 8.2%. In the case of `O=C(c1ccc(N2CCCC2=O)cc1)N1CCN(c2ccccc2Cl)CC1`, the “hERG current change (%, negative = inhibition) at 1uM” value was 7.7%. With `O=C(CCCSc1nc(-c2ccco2)cc(C(F)(F)F)n1)Nc1ccc2c(c1)OCO2` the “hERG current change (%, negative = inhibition) at 1uM” value was 14.8%. `O=C(N/N=C/c1ccc(O)cc1O)NC12CC3CC(CC(C3)C1)C2` was tested, and the “hERG current change (%, negative = inhibition) at 1uM” value was 8.95%. For `Cc1nn(C)c(Cl)c1CN1CCCC(CO)(Cc2ccccc2)C1` (stereo not shown), the “hERG current change (%, negative = inhibition) at 1uM” value was 10.6%. With `COc1cc(C(=O)N/N=C/c2ccc(OC)c(CN3CCN(c4ccc(F)cc4)CC3)c2)ccc1O` the “hERG current change (%, negative = inhibition) at 1uM” value was -52.4%. `CCc1ccccc1NC(=O)CN(C)Cc1nc(N)nc(Nc2ccccc2C)n1` was tested, and the “hERG current change (%, negative = inhibition) at 1uM” value was -0.11%. With `CCn1c(C)cc(/C=C2\NC(=O)N(CC(=O)Nc3cccc(C)c3)C2=O)c1C` the “hERG current change (%, negative = inhibition) at 1uM” value was -2.56%. For `Cc1nc2ccccc2c(=O)n1NCc1cccs1`, the “hERG current change (%, negative = inhibition) at 1uM” value was 13.1%. With `CSc1ccccc1OCc1cc(C(=O)N(C)Cc2ccc3nsnc3c2)no1` the “hERG current change (%, negative = inhibition) at 1uM” value was 6.87%. `COc1cc(CNC(=O)CCCC/C=C/C(C)C)ccc1O` was tested, and the “hERG current change (%, negative = inhibition) at 1uM” value was 11.8%. With `COc1ccccc1NC(=O)C(C)OC(=O)CCC1CCCCC1` (stereo not shown) the “hERG current change (%, negative = inhibition) at 1uM” value was 0.267%. With `CCOC(=O)C1C(c2cccs2)NC(=O)N(C)C1(O)C(F)(F)F` (stereo not shown) the “hERG current change (%, negative = inhibition) at 1uM” value was 12.1%.
